Measurements from the supplement of paper PMC3334620.
Over roughly 33,000 sequences, “E-score (-0.5 to 0.5)” has its median near -0.036; the highest 2% begin near 0.37. Some of the results follow.

molecular target: T1, Yer064c (UniProt P40041); test: PBM E-score (8-mer binding enrichment) (E-score (-0.5 to 0.5)); higher = stronger / more preferred TF binding; most listed sequences are background and not binding sites; conditions: protein concentration: 200 nM; construct: GST-full length
T1 sequence: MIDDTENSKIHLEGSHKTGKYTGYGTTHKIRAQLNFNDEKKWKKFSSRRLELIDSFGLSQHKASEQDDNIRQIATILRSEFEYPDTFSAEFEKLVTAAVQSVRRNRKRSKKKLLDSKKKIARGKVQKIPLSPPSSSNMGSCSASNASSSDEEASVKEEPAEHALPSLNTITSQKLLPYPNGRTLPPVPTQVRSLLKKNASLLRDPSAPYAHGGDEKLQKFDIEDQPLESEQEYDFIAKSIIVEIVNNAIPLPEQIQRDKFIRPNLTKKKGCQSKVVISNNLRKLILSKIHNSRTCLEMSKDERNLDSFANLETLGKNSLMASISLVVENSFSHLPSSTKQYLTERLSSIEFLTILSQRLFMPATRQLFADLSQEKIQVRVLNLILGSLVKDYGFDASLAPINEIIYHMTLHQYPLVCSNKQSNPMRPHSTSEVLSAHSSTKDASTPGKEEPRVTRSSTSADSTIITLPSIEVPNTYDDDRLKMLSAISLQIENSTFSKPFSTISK
In short: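 Universal all-10-mer Agilent arrays, fresh or stripped once, were converted to double-stranded form by primer extension. GST-tagged yeast transcription factors from PURExpress in vitro transcription/translation, full-length or DNA-binding domain only, were applied at about 100-200 nM and detected with fluorescent anti-GST. After masliner normalisation, the Universal PBM Analysis Suite scored each ungapped eight-base word together with its reverse complement by E-score.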

| Sequence | PBM E-score |
| --- | --- |
| GTAGGTAA | 0.0229 |
| ATAACGCA | -0.0857 |
| CCGGAAAG | -0.251 |
| TGTAAACA | 0.0346 |
| CATCGCTA | 0.0273 |
| CGGGAAAG | -0.127 |
| ACGGTCAT | -0.0935 |
| CTTCTGTC | 0.00897 |
| CTCTGACC | 0.0452 |
| CGCATTTC | -0.197 |
| ACATGTAC | -0.098 |
| ACCCATGA | 0.169 |
| ACCCCCGA | -0.132 |
| GCATACCA | -0.129 |
| TGGATCAA | 0.073 |
| ACGGATGC | -0.0804 |
| CCAAATCA | 0.228 |
| CACGGAGC | 0.0145 |
| GGGAACTA | -0.212 |
| GGACGTAA | -0.293 |
| GATGAAGA | -0.00651 |
| AGAGTGGC | -0.198 |
| GGCTCCAA | -0.0978 |
| GAGCCCGC | -0.28 |
| ATCGCATC | -0.0513 |

| Sequence | PBM E-score |
| --- | --- |
| AGTCTGTA | 0.13 |
| CAGTCGAC | 0.206 |
| ATAGACCC | -0.139 |
| AGTCCTGC | 0.241 |
| CTGAGCAC | -0.115 |
| CCCCCTGC | -0.373 |
| AACTATCT | -0.0503 |
| GCCTCCCC | -0.276 |
| CTCGTCGA | 0.084 |
| AACTGAAT | 0.101 |
| GCAGACGC | -0.184 |
| AAGGGGTC | -0.248 |
| GAGGTACA | 0.0616 |
| CTATTCGC | 0.0448 |
| GTAATCAA | 0.325 |
| CAACTTGG | -0.133 |
| AGGGTGAG | -0.0352 |
| CGACATTC | 0.0785 |
| AGAGTACT | 0.229 |
| ATATCCTC | -0.209 |
| GACCTTAA | 0.0176 |
| CTATATCC | -0.261 |
| AGGGTGAC | 0.225 |
| CGGCAAGC | -0.179 |
| ATTCATAA | 0.254 |

| Sequence | PBM E-score |
| --- | --- |
| CCGCACAG | -0.23 |
| AGGCAATG | -0.0199 |
| CTCGTGCC | -0.293 |
| CCCTGGCG | -0.262 |
| CCATGACA | 0.0562 |
| CTGCTGGA | -0.116 |
| CAGTATCG | 0.0472 |
| ACAAGCCA | -0.142 |
| ACCTATTA | -0.0852 |
| ATAAACTC | 0.135 |
| GAAGTCCC | -0.2 |
| GACGGGAA | 0.0725 |
| AGATTTCG | 0.0946 |
| AGAGTTGA | 0.111 |
| CATTTCTA | -0.167 |
| GAACCCAC | 0.0424 |
| ACCGGCCG | -0.036 |
| TGTACCAA | -0.125 |
| GTGACCAA | 0.0885 |
| ATGATACG | 0.0921 |
| CTCTGGCC | -0.207 |
| ATTGGCTA | 0.0683 |
| GTAACGTA | 0.0151 |
| CTTTATCC | -0.198 |
| CTCGGCAA | -0.207 |

| Sequence | PBM E-score |
| --- | --- |
| CAAGCAAC | -0.00895 |
| ACCGAAGA | 0.181 |
| AATTCTAG | -0.0015 |
| AATCAATT | 0.188 |
| AGCTAGCG | -0.219 |
| ATACGTCC | -0.287 |
| AGGATACC | -0.154 |
| AGGCACTA | -0.154 |
| AGTTTAGA | -0.0499 |
| ACAAGTCG | 0.0706 |
| ACAGATCC | -0.0694 |
| CCTATAAG | -0.126 |
| AGGTGGAA | 0.0297 |
| AAACACGT | -0.0663 |
| AGCGACCG | -0.103 |
| AACGGCGG | -0.0937 |
| CAACAGGG | -0.202 |
| CTTGTTCA | -0.0481 |
| ACAGTGGG | -0.212 |
| AAAGTATA | 0.0308 |
| CCGTACGG | -0.224 |
| ATAACGAA | 0.115 |
| CAAGGTTA | 0.0273 |
| ACCTCCGC | -0.183 |
| CAGACCAA | 0.102 |

| Sequence | PBM E-score |
| --- | --- |
| CAAGCACA | -0.031 |
| AATAATTG | -0.0748 |
| GTCGTGAA | -0.0162 |
| TGCCAGCA | -0.0413 |
| GCGGTACC | -0.0312 |
| GAATTAGC | -0.216 |
| AACACACA | 0.197 |
| TGCGCAAA | -0.0488 |
| GAGATCAC | 0.0494 |
| AAAGTAAT | 0.152 |
| AGAAGTAC | -0.1 |
| TCACAGCA | 0.018 |
| CCGATAGA | -0.0968 |
| CAACAACG | 0.141 |
| CCTTTAGA | -0.115 |
| CAGTAAAA | -0.0284 |
| ACGGTATC | -0.154 |
| ATCGTGAA | 0.0367 |
| CCGTGGTA | 0.0118 |
| CCAGAAAA | 0.0439 |
| CTAATGAC | 0.22 |
| AACGGCCC | -0.177 |
| CATCATAA | 0.0722 |
| GCAATAGC | -0.253 |
| CTTCTTCA | -0.0634 |

| Sequence | PBM E-score |
| --- | --- |
| GGTCGACC | -0.0461 |
| CGCAATGA | 0.208 |
| ATCAGTAA | 0.0818 |
| CATGCCCG | -0.0742 |
| GCAAAATA | 0.0652 |
| TAAGAATA | -0.0834 |
| ATGCGTCG | -0.166 |
| ACAGAGTG | 0.0565 |
| AGAATAAA | 0.114 |
| GACGGCTA | -0.172 |
| AGGGACAT | -0.183 |
| AATGATAT | 0.0776 |
| GTGCCTAA | -0.163 |
| CTTACTGA | 0.0728 |
| CGTTATGC | -0.195 |
| CGGCCTAC | -0.159 |
| ACTTTGTA | 0.186 |
| CCCGATAG | -0.158 |
| ATCTACAC | 0.117 |
| CAATTCCA | -0.297 |
| CCCCTACC | -0.124 |
| ACAAAAAG | 0.0753 |
| ATGCTGAC | 0.172 |
| GAAGTAGA | -0.0301 |
| ACAAGCAT | -0.175 |

| Sequence | PBM E-score |
| --- | --- |
| AGCCACAG | -0.0759 |
| CGATGCTC | -0.245 |
| TCACTGCA | 0.216 |
| TAAACGGA | -0.0658 |
| CGATACGA | 0.0406 |
| ACTTTTAT | 0.00893 |
| GGGTAATA | 0.00782 |
| ATCATTTG | 0.208 |
| AATAAGAT | 0.0112 |
| TAGCGTGA | 0.194 |
| TGGGTACA | 0.0823 |
| CGGCTCGC | -0.149 |
| TTAGCGAA | -0.0547 |
| CATTGAAG | 0.0114 |
| CAGCAAAC | 0.0396 |
| GATATGTA | -0.0516 |
| CCCTACTA | -0.133 |
| CCGACCAC | 0.0305 |
| AAATTACT | 0.118 |
| CTGCTAGC | -0.08 |
| CTGAATTA | 0.0399 |
| AGCGCAAT | 0.0807 |
